The source of these data is patent US7595313B2, “Nitric oxide donating diuretic compounds, compositions and methods of use” (NicOx, S.A., priority 2005, dated 2009).

The subject of the assay is contractions elicited by 100 nM angiotensin II in isolated rat aorta. The experiment in a line: Angiotensin II-induced contractions in rat aorta. Particulars: for inhibition of angiotensin-II-induced contractions (in words): 100 nM angiotensin II, isolated rat aorta; for inhibition at 1 µM / inhibition at 10 µM: Rattus norvegicus, read-out: % INHIBITION of angiotensin II-induced contraction.

As a reminder, the inhibition is the drop in the measured response relative to a control, in per cent. For the compound `NS(=O)(=O)c1cc2c(cc1Cl)NC(CCCCO[N+](=O)[O-])NS2(=O)=O` (centres unmarked) [Example 17b, 2H-1,2,4-Benzothiadiazine-7-sulfonamide, 6-chloro-3,4-dihydro-3-[4-(nitrooxy)butyl]-, 1,1-dioxide], the “inhibition of angiotensin-II-induced contractions (in words)” value is recorded as “significant inhibition”, the inhibition at 1 µM worked out at 36% and the inhibition at 10 µM worked out at 58%.
With `NS(=O)(=O)c1cc2c(cc1Cl)NCNS2(=O)=O` [HCT, hydrochlorothiazide, reference compound], the inhibition at 1 µM came to 0% and the inhibition at 10 µM is 12%.
With `NS(=O)(=O)c1cc2c(cc1Cl)NC(CCCCO)NS2(=O)=O` (centres unmarked) [Example 26, 2H-1,2,4-Benzothiadiazine-7-sulfonamide, 6-chloro-3,4-dihydro-3-(4-hydroxybutyl)-, 1,1-dioxide], the inhibition at 1 µM was 8%.
`NS(=O)(=O)c1cc2c(cc1Cl)NCN(CCO[N+](=O)[O-])S2(=O)=O` [Example 51, 2H-1,2,4-Benzothiadiazine-7-sulfonamide, 6-chloro-3,4-dihydro-2-[2-(nitrooxy)ethyl]-, 1,1-dioxide]: the “inhibition of angiotensin-II-induced contractions (in words)” value is “significant inhibition” and the inhibition at 1 µM was 51%.
